In PMC4336329 (PLoS ONE, 2015):
Hit rate of the full screen: of about 310,000 compounds, about 2,200 (0.71%) showed an effect of 50% or more. Effects have a minus sign here. The list shows a part of the results.

What follows are compounds tested against human ether-à-go-go-related gene (hERG) potassium channel (human, UniProt Q12809) (assay: primary screen, population patch clamp on CHO cells stably expressing hERG).
Sequence of human ether-à-go-go-related gene (hERG) potassium channel (Q12809 whole entry, looked up): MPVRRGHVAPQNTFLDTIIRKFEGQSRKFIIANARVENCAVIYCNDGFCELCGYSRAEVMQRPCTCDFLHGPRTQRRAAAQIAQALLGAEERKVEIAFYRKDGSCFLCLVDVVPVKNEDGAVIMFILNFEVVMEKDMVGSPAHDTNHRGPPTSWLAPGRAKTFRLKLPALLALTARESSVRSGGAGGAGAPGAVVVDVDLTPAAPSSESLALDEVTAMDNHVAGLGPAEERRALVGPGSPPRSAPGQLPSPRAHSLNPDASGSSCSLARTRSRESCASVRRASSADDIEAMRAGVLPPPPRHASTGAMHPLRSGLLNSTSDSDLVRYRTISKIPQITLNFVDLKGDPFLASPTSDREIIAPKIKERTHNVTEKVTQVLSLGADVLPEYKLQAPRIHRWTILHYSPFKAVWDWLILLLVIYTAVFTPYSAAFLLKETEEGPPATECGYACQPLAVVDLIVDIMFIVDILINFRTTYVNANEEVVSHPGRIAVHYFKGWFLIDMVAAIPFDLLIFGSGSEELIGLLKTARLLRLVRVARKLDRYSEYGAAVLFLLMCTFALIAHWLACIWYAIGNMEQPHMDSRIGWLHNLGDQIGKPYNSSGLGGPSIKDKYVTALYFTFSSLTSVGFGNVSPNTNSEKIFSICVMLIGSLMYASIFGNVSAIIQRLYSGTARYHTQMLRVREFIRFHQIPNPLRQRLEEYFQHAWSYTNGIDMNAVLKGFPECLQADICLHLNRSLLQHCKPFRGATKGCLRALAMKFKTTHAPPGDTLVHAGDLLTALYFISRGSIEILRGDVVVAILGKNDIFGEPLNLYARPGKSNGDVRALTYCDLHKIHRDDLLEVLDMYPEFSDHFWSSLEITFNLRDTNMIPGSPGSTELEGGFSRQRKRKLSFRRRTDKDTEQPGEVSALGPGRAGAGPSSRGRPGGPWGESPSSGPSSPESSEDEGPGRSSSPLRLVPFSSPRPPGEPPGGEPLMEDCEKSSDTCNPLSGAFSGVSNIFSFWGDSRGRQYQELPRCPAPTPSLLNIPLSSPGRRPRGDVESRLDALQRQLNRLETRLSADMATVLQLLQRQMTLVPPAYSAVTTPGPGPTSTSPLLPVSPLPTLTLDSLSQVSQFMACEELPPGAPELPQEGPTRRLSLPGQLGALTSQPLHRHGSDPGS

Structure (SMILES)	hERG current change (%, negative = inhibition) at 1uM
O=C(O)c1cc([N+](=O)[O-])ccc1NCc1ccccc1	13.9%
CCc1nnc2n1N=C(c1ccc(Cl)cc1Cl)CS2	1.51%
COC(=O)Cc1ccc(NC(=O)c2ccccc2Cl)cc1	14.2%
N#Cc1c(-c2cccnc2)c2c([nH]c1=S)CCCC2	15.3%
Cn1c(CNC(=O)c2ccc3c(c2)OCO3)nnc1SCC(=O)Nc1ccccc1F	12.9%
COc1ccc(NC(=O)CO/N=C2\CCCc3nonc32)cc1	6.03%
CCOc1ccc(NC(=O)c2ccncc2)cc1	19%
Cc1ccc(Cl)cc1NC(=O)c1ocnc1C	-4.27%
Cc1ccc(S(=O)(=O)CC(=O)Nc2nc(C(C)(C)C)cs2)cc1	4.01%
O=C(O)CNc1nc(-c2ccccc2)nc2c1oc1ccccc12	16.5%
Cc1ccc(C(=O)OCC(=O)N2CC(=O)Nc3ccccc32)s1	15.9%
COc1ccc(NC(=O)c2cc3ccc4c5ccccc5[nH]c4c3cc2O)cc1	9.99%
CC(Oc1ccc2ccccc2c1)C(=O)NNC(=O)Nc1ccccc1 (centres unmarked)	18%
CCn1c(C(=O)Nc2ccsc2C(=O)OC)cc2sc(Cl)cc21	6.85%
NC(=O)SCC(=O)Nc1ccccc1C(=O)O	3.41%
NC(=O)c1ccccc1NS(=O)(=O)c1ccc(S(=O)(=O)N2CCCC2)cc1	6.39%
O=C(COC(=O)C1CC2CCCC(C1)C2=O)Nc1cccc(F)c1 (centres unmarked)	-4.61%
CC(=O)Nc1cccc(OCCCNS(=O)(=O)c2ccc(F)cc2)c1	1.52%
Cc1nc(S/C(=C/c2ccc(-c3cccc(Cl)c3)o2)C(=O)O)n[nH]1	9.55%

Structure (SMILES)	hERG current change (%, negative = inhibition) at 1uM
O=C(NCc1ccccn1)c1cccc(NS(=O)(=O)c2cccc(Cl)c2)c1	14%
COc1ccc(CC(=O)Nc2c3c(nn2C(C)(C)C)CS(=O)(=O)C3)cc1	9.94%
CC(Sc1nnc(-c2cccnc2)o1)C(=O)NC1CCCCC1 (centres unmarked)	16%
Cc1cc(Cl)cc(C)c1OCCOCCNCc1ccccc1.O=C(O)C(=O)O	12.1%
O=C(CC1C(=O)NCCN1C(=O)Nc1ccccc1)Nc1cccc(Cl)c1 (centres unmarked)	-3.91%
O=[N+]([O-])c1c(NCCCO)cc(SCc2ccco2)c2nonc12	-3.54%
CN1/C(=C\C(=O)Nc2ccc(Br)cc2)C(C)(C)c2ccccc21	7.08%
COc1cc(NC(=O)CSc2nccc(=O)[nH]2)c(C)cc1[N+](=O)[O-]	15.7%
Cl.NNc1nc(-c2ccccc2)cs1	4.94%
O=C(NCC1CCCCC1)c1cc(S(=O)(=O)N2CCCCC2)ccc1Cl	-1.03%
CC(C)c1ccc(N2C(=O)[C@@H]3Cc4ccccc4CN3C2=O)cc1	22.6%
CCOC(=O)Cn1c(=O)c(C#N)cn(C(C)C)c1=O	16.2%
Fc1cccc(/C=N/Nc2ccc3ccccc3n2)c1	12.9%
CC(=O)Nc1cccc(-c2csc(Nc3cc(C)ccn3)n2)c1	16.3%
Cc1cc(NC(c2cccnc2)c2c(C)[nH]c3ccccc23)no1 (centres unmarked)	10.1%
Cc1ccsc1C(=O)NCc1ccccc1Cl	7.2%
CCOC(=O)C1=NN(c2ccc(C)cc2)CC1C(=O)OC (centres unmarked)	7.73%
CCOC(=O)c1cnc2c(C)cc(C)cc2c1Nc1ccc(S(=O)(=O)Nc2ncccn2)cc1	9.42%
Cc1ccc2nc(SCC(=O)Nc3nnc(SCC(N)=O)s3)[nH]c2c1	3.02%

Structure (SMILES)	hERG current change (%, negative = inhibition) at 1uM
C=Cc1c(C)c2cc3[nH]c(cc4nc(cc5nc(cc1[nH]2)C(C)=C5CCC(=O)[O-])C(CCC(=O)[O-])=C4C)c(C)c3C=C.[Na+]	13%
Cc1ccnc(NC(=O)CCC(=O)N(CC(=O)NC2CCCCC2)c2cccc(C)c2C)c1	4.93%
Cc1cc(C)c(NC(=O)CSc2ccc(-c3ccccn3)nn2)c(C)c1	20.3%
Cc1cc(NC(=O)CCCC(=O)NCc2cccs2)no1	-3.83%
CN(C)c1cccc(C(=O)OCC(=O)Nc2ccccc2-c2ccccc2)c1	3.88%
Cc1ccc(NC(=O)c2ccccc2OCC(=O)c2ccc(F)cc2)cc1	3.01%
CCCCN1C2=NC(c3ccccc3)CN2c2ccccc21.Cl (centres unmarked)	-50.5%
CCOC(=O)N1CCN(CC(O)c2ccc3cc[nH]c3c2)CC1 (centres unmarked)	-11.5%
Cc1ccn2c(=O)nc(SCC(=O)NCc3ccccc3)nc2c1	9.26%
O=C(NCc1cccnc1)c1cc2ccccc2oc1=O	2.98%
Cc1cc(C)cc(NC(=O)CSc2nnc(-c3cc(C)[nH]n3)n2N)c1	7.21%
Cc1ccc(C)c(N2CCN(C(=O)C3CCN(c4nc(C)cc(C)n4)CC3)CC2)c1	1.32%
C=CCn1c(SCC(=O)N2CCOCC2)nc2sc3c(c2c1=O)CCCC3	-16%
CO[C@H]1C=CO[C@@]2(C)Oc3c(C)c(O)c4c(O)c(c(C=NN5CCN(C)CC5)c(O)c4c3C2=O)NC(=O)C(C)=CC=C[C@H](C)[C@H](O)[C@@H](C)[C@@H](O)[C@@H](C)[C@H](OC(C)=O)[C@@H]1C	4.69%
CC1CC(C)(C)NC(=S)N1CC(=O)NCc1ccc2c(c1)OCO2 (centres unmarked)	9.61%
O=C(NCC1CCCO1)c1ccc2c(c1)N(Cc1ccccc1)C(=O)CS2=O (centres unmarked)	10.2%
Cc1ccc(Cn2c(=O)n(C)c(=O)c3sccc32)cc1	4.89%
S=C(NCC1CCCO1)Nc1cc(Cl)c(Cl)cc1Cl (centres unmarked)	13.5%
